In the RNAGym collection of RNA variant scans (doi:10.7554/elife.90254):
Read counts are not given, so values of variants with three or more changes are uncertain.

B1: OR4K15 (parent)
chain: GUUAACGGUCAUAGGCCAUGGAAACUAGGAGCACCAUUUCGCUGCCAGUGAAGAAAUGAACAAAGAAAAUCUGGGCCAGGCAGGCAUCAAAAGAAAUAGUCUUGCGCUCAACCAGAAAGUCUGUAAUCAUUUUAAGGGUA

Variants of: B1
Assay: self-cleavage, relative activity (ratio to wild type); higher = more cleavage; in vitro, sequencing; the parent is a self-cleaving ribozyme
For GUUAACGGCCAUAGGCCAUGGAAACUAGGAGCACCAUCUCGCUGCCAGUGAAGAAAUGAACAAAGAAAAACUGGGCCAGGCAGGCAUCAAAAGAAAUAGUCUUGCGCUCAACCAGAAAGUCUGUAGUCAUUUUAAGGGUA [U9C U38C U70A A126G], the self-cleavage was 0.28.
Work on GUUAACGGUCAUAGGCCAUGGAAACUAGGAGCACCAUCUCGCUGCCAGUGAAGAAAUGAACAAAGAGAAUCUGGGCCAGGCAGGCAUCAAAAGAAAUAGCCUUGCGCUCAACCAGAAAGUCUGUAAUCAUUUUAAGGGUA [U38C A67G U100C] yielded a self-cleavage of 2.74.
For GUUAACGGUCAUAGGCCACGGAAACUAGGAGCACCAUUUCGCUGCCAGUGAAGAGAUGAACAAAGAAAAUCUGGGCCAGGCAGGCAUCAAAAGAAAUAGACUUGCGCUCAACCAGAAAGUCUGUAAUCAUUUUAAGGGUA [U19C A55G U100A], the self-cleavage was 0.2.
Work on GUUAUCGGUCAUAGGCCAUGGAAACUAGGAGCACCAUCUCGCUGCCAGUGAAGAAAUGAACAACGAAAAUCUGGGCCAGGCAGGCAUCAAAAGAAAUAGUCUUGCGCUCAACCAGAAAGUCUGUAAUCAUUUUAAGGGUA [A5U U38C A64C] yielded a self-cleavage of 1.07.
GUUAACGGUCAUAGGCCAUGGAAACUAGGAGCUCCAUUUCGCUGCCAGUGAAGAAGUGUACGAAGAAAUUCUGGGCCAGGCAGGCAUCAAAAGAAAUAGUCUUGCGCUCAACCAGAAAGUCUGUAAUCAUUUUAAGGGUA [A33U A56G A59U A62G A69U] showed a self-cleavage of 1.89.
Work on GUUAACGGUCAUAGGCCAUGGAAACUAGGAGCACUAUUUCGCUGCCUGUGAAGAAAUGGACAAAGAAAAUCUGGGCCAGGCAGGCAUCAAAAGAAAUAGUCUCGCGCUCAACCAGAAAGUCCGUAAUCAUUUUAAGGGUA [C35U A47U A59G U103C U122C] yielded a self-cleavage of 0.12.
GUUAACGGUCAUAGGCCAUGGAAACUAGGAGCACCAUUUCGCUGCCAGUGAGGAAAAGAACAAAGAAAAUCUGGGCCAGGCAGGCAUCAAAAGAAAUAGUCUUGCGCUCAACCAGAAAGUCUGUAAUCGUUUUAAGGGUA [A52G U57A A129G] gave a self-cleavage of 0.75.
In the case of GUUAACGGUCAUAGGCCAUGGGAACUAGGAGCACCAUUUCGCUGCCAGUGAAGAAAUGAACAAAGAAAAUCUGGGCCAGGCAGGCAUCAAAAGAAAUAGUCUUGCGCUCGACCAGAAGGUCUGUAAUCAUUUUAAGGGUA [A22G A110G A118G], the self-cleavage is reported as 0.14.
With GUUAACGGUCAUAGGCCAUGGAAACUAGGAGCACCAUUUCGCUGCCAGUGAAGAAAUGAACAAAGAAAAUCUGGGCCAGGCAGGCAUCAAAAGAAAAAGUCUUGCGCCCAGCCAGAAAGUCUGUAAUCAUUUUAAGGGUA [U97A U108C A111G] the self-cleavage was 0.01.
Work on GUUAGCGGUCAUAGGCCAUGGAAACUAGGAGCACCAUUUCGCUGCAAGUGAAGGAAUGAACAAAGAAAAUCUGGGCCAGGCAGGCAUCAAAAGAAAUAGUCUAGCGCUCAACCAGAAAGUCUGUAUUCAUUUUAAGGGUA [A5G C46A A54G U103A A126U] yielded a self-cleavage of 0.52.
With GUUAACGGUCAUAGGCCAUGGAAACUAGGAGCACCAUUUCGCUGCCAGUGGAGAAAUGAACAAAGAAAAUCUGGGCCAGGCAGGCAUCAAAAGUAAUAGUCCUGCGCUCAACCAGAAAGUCUGUAAUCAUUUUAAGGGUA [A51G A94U U102C] the self-cleavage was 2.05.
GUUAACGGUCAUAGGCCAUGGAAACUAGGAGCACCAUUUCGCUGCCAGUGAAGAAAUGAACGAAGAAAAUCUGGGCCAGGCAGGCAUCAAAAGAAAUAGUCUUGCGCUCAACCAGAAGGUCUGUAAUCAUUCUAAGGGUA [A62G A118G U132C] showed a self-cleavage of 0.93.
With GUUAACGGUCAUAGGCCAUGGAAACUAGGAGCACCAUUUCGCUGCCAGUGAAGAAACGAACAAUGAAAAUCUGGGCCAGGCAGGCAUCAAAAGGAAUAGUCUUGCGCUCAACUAGAAAGUCUGUAAUCAUUUUAAGGGUA [U57C A64U A94G C113U] the self-cleavage was 0.03.
For GUUAACGGUCAUAGGCCAUGGAAGCUAGGAGCACCACUUCGCUGCCAGUGAAGAGAUGAACAAAGAAAAUCUGGGCCAGGCAGGCAUCAAAAGAAAUAGUCUUGCGCUCAACCAGAAAGUCUGUAAUCAUUUUAAGGGUA [A24G U37C A55G], the self-cleavage was 1.2.
With GUUAACGGACAUAGGCCACGGAAACUAGGAGCACCAUUUCGCUGCCAGUGAUGAAAUGGACAAAGAAAAUCUGGGCCAGGCAGGCAUCAGAAGAAAUAGUCUUGCGCUCAACCAGAAAGUCUGUAAUCAUUUUAAGGGUA [U9A U19C A52U A59G A90G] the self-cleavage was 0.17.
In the case of GUUAACGGUCAUAGGCCAUGGAAACUAGGAGCACCAUUUCGCUGCCAGUGAAGAAAUGAACGAAGAAAAUCUGGGCCAGGCAGGCAUCAAAAGAAAUAGUCCUGCGCCCAACCAGAAAGUCUGUAAUCAUUUUAAGGGUA [A62G U102C U108C], the self-cleavage is reported as 0.02.
GUUAACGGUCAUAGGCCACGGAGACUAGGAGCACCAUUUCGCUGCCAGCGAAGAAAUGGACAAAGAAAAUCUGGGCCAGGCAGGCAUCAAAAGAGAUAGUCUUGCGCUCAACCAGAAAGUCUGUAAUCAUUUUAAGGGUA [U19C A23G U49C A59G A95G] gave a self-cleavage of 1.26.
For GUUAACGGUCAUAGGCCAUGGACACUAGGAGCACCAUUUCGCUGCCAGUGAAGAAAUGAGCAAAGAAAAUCUGGGCCAGGCAGGCAUCAAAAGAAACAGUCUAGCGCUCAACCAGAAAGUCUGUAAUCAUUUUAAGGGUA [A23C A60G U97C U103A], the self-cleavage was 1.25.
GUUAACGGUCAUAGGCCAUGGAAACUAGGAGCACCAUUUCGCUGCCAGUGAAGAAAUGGACAAAGAAAAUCUGGGCCAGGCAGGCAUCAAAAGAAGUAGCCUUGCGCUCAGCCAGAAAGUCUGUAAUCAUUUUAAGGGUA [A59G A96G U100C A111G] gave a self-cleavage of 0.02.
GUUAACGGUCAUAGGCCAUGGAAACUAGGAGCACCAUUUCGCUGCCAGUGAAGAAAUGAACAAAGAAAAUCUGGGCCAGGCAGGCACCAAAAGAAAUAGUCUCGCGCUCAACCAGAAAGUCUGUAAUCAUUCUAAGGAUA [U87C U103C U132C G138A] showed a self-cleavage of 0.58.
GUUAACGGUCAUAGGCCAUGGAAACUAGGAGCGCCAUUUCGCUGCCAGUGAAGAAAUGAACAAAGAAAAUCUGGGCCAGGCAGGCAUCAAGAGAAAUAGUCUUGCGCUCGACCAGAAAGUCUGUAAUCAUUUUAAGGGUA [A33G A91G A110G] gave a self-cleavage of 0.11.
